The list shows a part of the results.
B1: PhoQ; a variant is named by its letters at X, in order, P23837 (parent)
chain: MKKLLRLFFPLSLRVRFLLATAAVVLVLSLAYGMVALIGYSVSFDKTTFRLLRGESNLFYTLAKWENNKLHVELPENIDKQSPTMTLIYDENGQLLWAQRDVPWLMKMIQPDWLKSNGFHEIEADVNDTSLLLSGDHSIQQQLQEVREDDDDAEMTHSVAVNVYPATSRMPKLTIVVVDTIPVELKSSYMVWSWFIYVLSANLLLVIPLLWVAAWWSLRPIEALAKEVRELEEHNRELLNPATTRELTSLVRNLNRLLKSERERYDKYRTTLTDLTHSLKTPLXXLQXXLRSLRSEKMSVSDAEPVMLEQISRISQQIGYYLHRASMRGGTLLSRELHPVAPLLDNLTSALNKVYQRKGVNISLDISPEISFVGEQNDFVEVMGNVLDNACKYCLEFVEISARQTDEHLYIVVEDDGPGIPLSKREVIFDRGQRVDTLRPGQGVGLAVAREITEQYEGKIVAGESMLGGARMEVIFGRQHSAPKDE

Variants of: B1
Assay: enrichment ratio after two sorts for PhoP signalling (ratio (wild type AVST 3.29)); higher = more functional
Settings: with PhoP (E. coli)

Compared with SVLT, TVEK is higher in enrichment ratio: 5.87 for the first, 13.3 for the second.

NHKT and HNTS cannot be ordered by enrichment ratio: ≤ 0.25 for the first, ≤ 0.25 for the second.

YFMN and DSWG cannot be ordered by enrichment ratio: ≤ 0.25 for the first, ≤ 0.25 for the second.

EYPT and PMDL cannot be ordered by enrichment ratio: ≤ 0.25 for the first, ≤ 0.25 for the second.

HLMM and HSMS cannot be ordered by enrichment ratio: ≤ 0.25 for the first, ≤ 0.25 for the second.

WFIY and EPHF cannot be ordered by enrichment ratio: ≤ 0.25 for the first, ≤ 0.25 for the second.

VMLR and SPKM cannot be ordered by enrichment ratio: ≤ 0.25 for the first, ≤ 0.25 for the second.

First: FGQE
Second: SQAD
The enrichment ratio of the first is lower: ≤ 0.25 for the first, 5.86 for the second.

EDTM and RTVS cannot be ordered by enrichment ratio: ≤ 0.25 for the first, ≤ 0.25 for the second.

VCTN and PDHF cannot be ordered by enrichment ratio: ≤ 0.25 for the first, ≤ 0.25 for the second.

Going from IERI to TNSQ, the enrichment ratio rises from ≤ 0.25 to 6.98.

WMYL and RLSL cannot be ordered by enrichment ratio: ≤ 0.25 for the first, ≤ 0.25 for the second.

PRIT and LMAA cannot be ordered by enrichment ratio: ≤ 0.25 for the first, ≤ 0.25 for the second.

Compared with SEFQ, PTLF is lower in enrichment ratio: 6.8 for the first, ≤ 0.25 for the second.

GKNS and EITA cannot be ordered by enrichment ratio: ≤ 0.25 for the first, ≤ 0.25 for the second.

HEPQ and INSK cannot be ordered by enrichment ratio: ≤ 0.25 for the first, ≤ 0.25 for the second.

DQFD and HALT cannot be ordered by enrichment ratio: ≤ 0.25 for the first, ≤ 0.25 for the second.

AGWI and YPTS cannot be ordered by enrichment ratio: ≤ 0.25 for the first, ≤ 0.25 for the second.

WELQ and LCKI cannot be ordered by enrichment ratio: ≤ 0.25 for the first, ≤ 0.25 for the second.

First: LSMQ
Second: YKVT
The enrichment ratio of the first is higher: 0.756 for the first, ≤ 0.25 for the second.

PGYW and LQFR cannot be ordered by enrichment ratio: ≤ 0.25 for the first, ≤ 0.25 for the second.

GEDY and NRHF cannot be ordered by enrichment ratio: ≤ 0.25 for the first, ≤ 0.25 for the second.

DCAT and YPDF cannot be ordered by enrichment ratio: ≤ 0.25 for the first, ≤ 0.25 for the second.

LRDW and QDIL cannot be ordered by enrichment ratio: ≤ 0.25 for the first, ≤ 0.25 for the second.

AGPE and TYAP cannot be ordered by enrichment ratio: ≤ 0.25 for the first, ≤ 0.25 for the second.

MFRH and PIIR cannot be ordered by enrichment ratio: ≤ 0.25 for the first, ≤ 0.25 for the second.

REQE and EGIC cannot be ordered by enrichment ratio: ≤ 0.25 for the first, ≤ 0.25 for the second.

WTYN and DWIC cannot be ordered by enrichment ratio: ≤ 0.25 for the first, ≤ 0.25 for the second.

IYTI and PFQV cannot be ordered by enrichment ratio: ≤ 0.25 for the first, ≤ 0.25 for the second.

NRAT and VPME cannot be ordered by enrichment ratio: ≤ 0.25 for the first, ≤ 0.25 for the second.

First: ACIN
Second: NKAM
The enrichment ratio of the first is higher: 2.16 for the first, ≤ 0.25 for the second.

FGKW and LQGF cannot be ordered by enrichment ratio: ≤ 0.25 for the first, ≤ 0.25 for the second.

PDNH and MVRR cannot be ordered by enrichment ratio: ≤ 0.25 for the first, ≤ 0.25 for the second.

VTEF and SYWT cannot be ordered by enrichment ratio: ≤ 0.25 for the first, ≤ 0.25 for the second.

ETNL and MEYF cannot be ordered by enrichment ratio: ≤ 0.25 for the first, ≤ 0.25 for the second.

TWDC and FWQH cannot be ordered by enrichment ratio: ≤ 0.25 for the first, ≤ 0.25 for the second.

KKHT and FRTI cannot be ordered by enrichment ratio: ≤ 0.25 for the first, ≤ 0.25 for the second.

LVGI and MFPS cannot be ordered by enrichment ratio: ≤ 0.25 for the first, ≤ 0.25 for the second.

GVTK and RMCF cannot be ordered by enrichment ratio: ≤ 0.25 for the first, ≤ 0.25 for the second.

WQWG and WMHD cannot be ordered by enrichment ratio: ≤ 0.25 for the first, ≤ 0.25 for the second.

IHYA and GQEV cannot be ordered by enrichment ratio: ≤ 0.25 for the first, ≤ 0.25 for the second.

First: VKYR
Second: TEAY
The enrichment ratio of the first is lower: 0.327 for the first, 9.22 for the second.

LTPW and PYPE cannot be ordered by enrichment ratio: ≤ 0.25 for the first, ≤ 0.25 for the second.

LFNH and NKEF cannot be ordered by enrichment ratio: ≤ 0.25 for the first, ≤ 0.25 for the second.

WDWS and VMMI cannot be ordered by enrichment ratio: ≤ 0.25 for the first, ≤ 0.25 for the second.

MGYN and IGPK cannot be ordered by enrichment ratio: ≤ 0.25 for the first, ≤ 0.25 for the second.

RKLS and DDSW cannot be ordered by enrichment ratio: ≤ 0.25 for the first, ≤ 0.25 for the second.

Going from SIYQ to WHCI, the enrichment ratio falls from 2.52 to ≤ 0.25.

IIRS and ALQF cannot be ordered by enrichment ratio: ≤ 0.25 for the first, ≤ 0.25 for the second.

DGNP and AGNN cannot be ordered by enrichment ratio: ≤ 0.25 for the first, ≤ 0.25 for the second.

YDHK and DVRR cannot be ordered by enrichment ratio: ≤ 0.25 for the first, ≤ 0.25 for the second.

PNCH and LNQK cannot be ordered by enrichment ratio: ≤ 0.25 for the first, ≤ 0.25 for the second.

PSGA and CQII cannot be ordered by enrichment ratio: ≤ 0.25 for the first, ≤ 0.25 for the second.

Going from KRQR to MAFE, the enrichment ratio rises from ≤ 0.25 to 8.88.

DGFA and TTIT cannot be ordered by enrichment ratio: ≤ 0.25 for the first, ≤ 0.25 for the second.

HERI and QFCK cannot be ordered by enrichment ratio: ≤ 0.25 for the first, ≤ 0.25 for the second.

FNFG and MQYD cannot be ordered by enrichment ratio: ≤ 0.25 for the first, ≤ 0.25 for the second.

Going from TGTF to WYYH, the enrichment ratio falls from 4.57 to ≤ 0.25.

GMQL and PVAV cannot be ordered by enrichment ratio: ≤ 0.25 for the first, ≤ 0.25 for the second.

VEPY and QKLT cannot be ordered by enrichment ratio: ≤ 0.25 for the first, ≤ 0.25 for the second.

WLFE and FKDG cannot be ordered by enrichment ratio: ≤ 0.25 for the first, ≤ 0.25 for the second.

NIPD and GQKT cannot be ordered by enrichment ratio: ≤ 0.25 for the first, ≤ 0.25 for the second.

MLIR and EDDN cannot be ordered by enrichment ratio: ≤ 0.25 for the first, ≤ 0.25 for the second.

First: RDWI
Second: DTWH
The enrichment ratio of the first is higher: 2.2 for the first, ≤ 0.25 for the second.

ISLS and HNDM cannot be ordered by enrichment ratio: ≤ 0.25 for the first, ≤ 0.25 for the second.

YADH and HRRH cannot be ordered by enrichment ratio: ≤ 0.25 for the first, ≤ 0.25 for the second.

Going from TAFA to LIHR, the enrichment ratio falls from 0.563 to ≤ 0.25.

LLRT and ENYK cannot be ordered by enrichment ratio: ≤ 0.25 for the first, ≤ 0.25 for the second.

MRYN and KLCT cannot be ordered by enrichment ratio: ≤ 0.25 for the first, ≤ 0.25 for the second.

Compared with KAVY, SFVA is higher in enrichment ratio: 0.289 for the first, 0.932 for the second.

YSCG and HDHI cannot be ordered by enrichment ratio: ≤ 0.25 for the first, ≤ 0.25 for the second.

RRTG and IAQI cannot be ordered by enrichment ratio: ≤ 0.25 for the first, ≤ 0.25 for the second.

TCQW and LNCP cannot be ordered by enrichment ratio: ≤ 0.25 for the first, ≤ 0.25 for the second.

FHNS and VVWN cannot be ordered by enrichment ratio: ≤ 0.25 for the first, ≤ 0.25 for the second.

IWYY and YCQL cannot be ordered by enrichment ratio: ≤ 0.25 for the first, ≤ 0.25 for the second.

VYCP and HWSI cannot be ordered by enrichment ratio: ≤ 0.25 for the first, ≤ 0.25 for the second.

QPCN and IHSE cannot be ordered by enrichment ratio: ≤ 0.25 for the first, ≤ 0.25 for the second.

PYHI and MQGQ cannot be ordered by enrichment ratio: ≤ 0.25 for the first, ≤ 0.25 for the second.

VAFC and KAYS cannot be ordered by enrichment ratio: ≤ 0.25 for the first, ≤ 0.25 for the second.

WPIQ and ICCY cannot be ordered by enrichment ratio: ≤ 0.25 for the first, ≤ 0.25 for the second.

NDKD and WLGP cannot be ordered by enrichment ratio: ≤ 0.25 for the first, ≤ 0.25 for the second.

WSDN and LNSY cannot be ordered by enrichment ratio: ≤ 0.25 for the first, ≤ 0.25 for the second.

NERT and AYRY cannot be ordered by enrichment ratio: ≤ 0.25 for the first, ≤ 0.25 for the second.

AHMA and WPTY cannot be ordered by enrichment ratio: ≤ 0.25 for the first, ≤ 0.25 for the second.

RRYM and NFPR cannot be ordered by enrichment ratio: ≤ 0.25 for the first, ≤ 0.25 for the second.

KEYP and STKP cannot be ordered by enrichment ratio: ≤ 0.25 for the first, ≤ 0.25 for the second.

MSAD and VRGW cannot be ordered by enrichment ratio: ≤ 0.25 for the first, ≤ 0.25 for the second.

AHPP and FPYT cannot be ordered by enrichment ratio: ≤ 0.25 for the first, ≤ 0.25 for the second.

AQDS and IQMQ cannot be ordered by enrichment ratio: ≤ 0.25 for the first, ≤ 0.25 for the second.

First: AFSM
Second: YQEA
The enrichment ratio of the first is higher: 0.932 for the first, ≤ 0.25 for the second.

GHSK and IYIM cannot be ordered by enrichment ratio: ≤ 0.25 for the first, ≤ 0.25 for the second.

First: DPHG
Second: MCHM
The enrichment ratio of the first is lower: ≤ 0.25 for the first, 16.7 for the second.

KNYG and IMWR cannot be ordered by enrichment ratio: ≤ 0.25 for the first, ≤ 0.25 for the second.

KQFH and AWYQ cannot be ordered by enrichment ratio: ≤ 0.25 for the first, ≤ 0.25 for the second.

FLKI and PRTV cannot be ordered by enrichment ratio: ≤ 0.25 for the first, ≤ 0.25 for the second.

First: DLVW
Second: LGFM
The enrichment ratio of the first is lower: ≤ 0.25 for the first, 10.3 for the second.

PYRS and AYFY cannot be ordered by enrichment ratio: ≤ 0.25 for the first, ≤ 0.25 for the second.

In the case of ADPD, the enrichment ratio is reported as ≤ 0.25.

From a collection of fitness landscapes (doi:10.1126/science.1257360)
